From PubChem BioAssay AID1460 (National Center for Advancing Translational Sciences (NCATS), 2008)
Screen size: about 270,000 compounds; about 5,800 (2.1%) were called active. Inconclusive means that the source gave no clear call. Such entries were picked first, then a sample of the others. Calls come from the whole dose curve; as a rule, active = well fitted inhibition curve with a large enough effect; inconclusive = small, poorly fitted or top-dose-only effect; inactive = flat fitted curve, though single readings scatter. Potencies of inconclusive entries are doubtful fits and often do not repeat.

Each molecule was assayed against Microtubule-associated protein tau (Homo sapiens) (UniProt P10636) (assay: qHTS for Inhibitors of Tau Fibril Formation, Thioflavin T Binding). Conditions: recombinant tau K18 P301L (four-repeat tau fragment), heparin-induced fibrillization, ThT fluorescence; series mostly up to 57.4 µM.
Method in brief: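 Aggregation was driven by heparin (20 uM final) acting on recombinant tau […] bearing P301L in 100 mM sodium acetate pH 7; fibrils were detected with Thioflavin T.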
% is set by controls: 0 for no effect and ±100 for the full control effect; potency is the fitted concentration of half-maximal effect; tags give direction and shape of the fitted curve.
Note: nearly all actives have a fitted effect of over 55% in size.

UniProt P10636, sequence (P10636 whole entry, looked up, the tested form may be a part): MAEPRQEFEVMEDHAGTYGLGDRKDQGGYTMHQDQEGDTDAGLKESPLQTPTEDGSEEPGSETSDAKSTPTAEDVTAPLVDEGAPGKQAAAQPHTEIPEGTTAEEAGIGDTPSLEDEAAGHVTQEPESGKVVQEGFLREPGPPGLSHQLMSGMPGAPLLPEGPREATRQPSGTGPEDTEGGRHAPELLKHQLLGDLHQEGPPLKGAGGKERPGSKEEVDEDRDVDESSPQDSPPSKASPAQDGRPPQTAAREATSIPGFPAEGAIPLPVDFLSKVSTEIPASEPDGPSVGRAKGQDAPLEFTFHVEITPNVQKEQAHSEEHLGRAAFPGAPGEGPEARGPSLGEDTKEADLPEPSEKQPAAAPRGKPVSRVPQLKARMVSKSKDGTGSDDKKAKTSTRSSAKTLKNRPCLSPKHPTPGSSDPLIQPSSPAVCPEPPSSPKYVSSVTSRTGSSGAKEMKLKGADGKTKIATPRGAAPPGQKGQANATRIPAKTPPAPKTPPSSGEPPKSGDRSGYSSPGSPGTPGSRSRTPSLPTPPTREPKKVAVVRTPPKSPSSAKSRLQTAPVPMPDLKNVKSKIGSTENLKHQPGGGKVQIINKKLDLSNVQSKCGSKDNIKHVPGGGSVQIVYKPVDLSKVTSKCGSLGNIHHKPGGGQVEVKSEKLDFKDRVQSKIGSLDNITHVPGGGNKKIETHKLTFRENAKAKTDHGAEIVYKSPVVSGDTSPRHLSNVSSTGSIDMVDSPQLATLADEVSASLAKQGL

**Q.** Which Potency does the source give for `CC(=O)Nc1ccc(OCc2nnc(-c3ccc(Cl)cc3)o2)cc1` here?
**A.** inconclusive: 11.2 µM [inhibitor, partial curve]

**Q.** Which Potency does the source give for `N/C(=N\OC(=O)c1ccc(Cl)cc1Cl)c1ccccn1` here?
**A.** inconclusive: 12.6 µM [inhibitor, single point]

**Q.** For `Cc1cc(NC(c2cccnc2)c2ccc3cccnc3c2O)no1` (stereo unspecified), which Potency is on record?
**A.** inconclusive: 12.6 µM [inhibitor, partial curve]

**Q.** With `Cc1cc(=O)[nH]c(N/N=C/c2c[nH]c3ccccc23)n1` as the molecule, how does the Potency read?
**A.** inconclusive: 12.6 µM [inhibitor, partial curve]

**Q.** `CC(=O)N1CCN(c2ccc(NC(=O)c3ccc(C)cc3)cc2)CC1` was tested. Which Potency did it give?
**A.** inconclusive: 5.01 µM [inhibitor, partial curve]

**Q.** `Cc1ccccc1OCC(=O)N/N=C/C=C/c1ccccc1` was tested. Which Potency did it give?
**A.** inconclusive: 28.2 µM [inhibitor, single point]

**Q.** For `CN(C)c1ccc(/C=N/NC(=O)c2ccnn2C)cc1`, which Potency is on record?
**A.** inactive

**Q.** `COc1cccc(NC(=O)COc2ccccc2C(N)=O)c1` was tested. Which Potency did it give?
**A.** inconclusive: 35.5 µM [inhibitor, single point]

**Q.** With `CN1CCc2c(sc3c2C(=O)NC(c2cccc(OC(=O)c4cccs4)c2)N3)C1` (stereo unspecified) as the molecule, how does the Potency read?
**A.** inconclusive: 20 µM [inhibitor, partial curve]

**Q.** With `Cc1cc(C)c2c(c1)N[C@H](c1cccs1)[C@@H]1CCO[C@H]21` as the molecule, how does the Potency read?
**A.** inactive

**Q.** With `Cc1ccc(Nc2nnc(SCC(=O)NCCN3C(=O)CSC3=O)s2)cc1C` as the molecule, how does the Potency read?
**A.** inconclusive: 25.1 µM [inhibitor, partial curve]

**Q.** How did the Potency turn out when `CN(c1ccc(Cl)cc1)c1cc(=O)n(C)c2ccccc12` was run?
**A.** inconclusive: 14.1 µM [inhibitor, partial curve]

**Q.** `Cc1nn2c(-c3cccc(NC(=O)CSc4nc5ccccc5o4)c3)nnc2c2ccccc12` was tested. Which Potency did it give?
**A.** inconclusive: 10 µM [inhibitor, partial curve]

**Q.** With `COc1ccc(-c2cccc(NS(=O)(=O)c3cc(C)c(Cl)cc3C)c2)nn1` as the molecule, how does the Potency read?
**A.** inactive

**Q.** `Cc1ccccc1NC(=O)CC1c2ccccc2CC(C)(C)N1C` (stereo unspecified) was tested. Which Potency did it give?
**A.** inconclusive: 31.6 µM [inhibitor, partial curve]

**Q.** For `CCCSc1cc(NCCOC(=O)CCC)c([N+](=O)[O-])c2nonc12`, which Potency is on record?
**A.** inconclusive: 28.2 µM [inhibitor, partial curve]

**Q.** Which Potency does the source give for `CC(=O)N1c2ccc(N=Cc3cc(Br)cc(Br)c3O)cc2CC1C` (stereo unspecified) here?
**A.** inconclusive: 1.78 µM [inhibitor, full curve]

**Q.** With `CC1CC(C)CN(C(=O)C(C)N(C)CC(=O)Nc2ccc(Cl)cc2)C1` (stereo unspecified) as the molecule, how does the Potency read?
**A.** inactive

**Q.** `O=C(COC(=O)/C=C/c1cccc(Cl)c1)Nc1ccccc1-c1ccccc1` was tested. Which Potency did it give?
**A.** inconclusive: 39.8 µM [inhibitor, single point]

**Q.** How did the Potency turn out when `CN1CCN(C(=S)NC(=O)c2ccc(Cl)cc2)CC1` was run?
**A.** inconclusive: 28.2 µM [inhibitor, partial curve]

**Q.** `O=C(Nc1nnc(COc2ccc(Cl)cc2)s1)c1ccco1` was tested. Which Potency did it give?
**A.** active: 31.6 µM

**Q.** For `COC(=O)NC(=S)Nc1ccc(Oc2ccc(Cl)cc2Cl)c(Cl)c1`, which Potency is on record?
**A.** inconclusive: 15.8 µM [inhibitor, partial curve]

**Q.** Which Potency does the source give for `O=Cc1cccc(Oc2ccc([N+](=O)[O-])cc2[N+](=O)[O-])c1` here?
**A.** inconclusive: 25.1 µM [inhibitor, single point]

**Q.** How did the Potency turn out when `CCCn1c(=NC(=O)c2ccc3c(c2)OCO3)c(C#N)cc2c(=O)n3cccc(C)c3nc21` was run?
**A.** inconclusive: 3.16 µM [inhibitor, single point]

**Q.** `C/C(=N/NC(=O)CSc1ccccn1)c1ccc([N+](=O)[O-])cc1` was tested. Which Potency did it give?
**A.** inconclusive: 14.1 µM [inhibitor, partial curve]

**Q.** How did the Potency turn out when `CCc1cc(C(=O)Cc2cnn(-c3ccccc3)c2)c(O)cc1O` was run?
**A.** inconclusive: 20 µM [inhibitor, partial curve, poor fit]

**Q.** With `N/C(Cc1cccs1)=N\OC(=O)COc1ccccc1` as the molecule, how does the Potency read?
**A.** inactive

**Q.** Which Potency does the source give for `CCOc1ccccc1Nc1ccc(C(=O)O)cc1[N+](=O)[O-]` here?
**A.** inconclusive: 25.1 µM [inhibitor, partial curve]

**Q.** How did the Potency turn out when `Cc1cc(O)c(C(c2cccc(Cl)c2)N2CCN(c3ccccc3)CC2)c(=O)n1Cc1ccco1` (stereo unspecified) was run?
**A.** inconclusive: 12.6 µM [inhibitor, single point]

**Q.** With `Cc1nc(N2CCCC2)ncc1C(=O)Nc1ccccc1` as the molecule, how does the Potency read?
**A.** inactive

**Q.** `CCc1ccc(-n2c(C)nc3cc(C(=O)NCCc4ccccc4)ccc32)cc1` was tested. Which Potency did it give?
**A.** inconclusive: 12.6 µM [inhibitor, partial curve]

**Q.** For `Cc1ccc(CN2CC34C=CC(O3)C(C(=O)NCc3ccco3)C4C2=O)cc1` (stereo unspecified), which Potency is on record?
**A.** inactive

**Q.** Which activity, negative = inhibition does the source give for `COC(C1CCCCC1)C(C)C(OCc1cccc(Br)c1)C(C)CO` (stereo unspecified) here?
**A.** inactive: -7.91% [at 11.5 µM]

**Q.** With `CN(C)c1ccc(CN(CC2CCCO2)C(=O)COc2ccc(Cl)cc2)cc1` (stereo unspecified) as the molecule, how does the Potency read?
**A.** inactive

**Q.** `CCC(C(=O)NC(C)CCc1ccco1)n1nc(C)n2c(cc3occc32)c1=O` (stereo unspecified) was tested. Which Potency did it give?
**A.** inactive

**Q.** `CCOc1ccc(Nc2nc(Cc3nnc(SCC(=O)c4ccc(C)cc4)o3)cs2)cc1` was tested. Which Potency did it give?
**A.** inconclusive: 0.562 µM [inhibitor, full curve, poor fit]

**Q.** Which Potency does the source give for `O=S(=O)(c1ccccc1)c1nc(-c2ccco2)oc1NCCN1CCOCC1` here?
**A.** inconclusive: 25.1 µM [inhibitor, partial curve]

**Q.** Which Potency does the source give for `COc1ccccc1NS(=O)(=O)c1cccc(NC(=O)c2ccc3ccccc3n2)c1` here?
**A.** inactive

**Q.** How did the Potency turn out when `CN(C)c1ccc(CNc2nc(-c3ccco3)nn2C(=O)c2cccc([N+](=O)[O-])c2)cc1` was run?
**A.** inconclusive: 12.6 µM [inhibitor, partial curve]

**Q.** Which Potency does the source give for `O=S(=O)(c1ccccc1F)N1CCN(C(=S)NCc2ccccc2)CC1` here?
**A.** inactive

**Q.** With `O=C(Nc1sc2c(c1C(=O)c1ccccc1)CCCC2)c1cccnc1` as the molecule, how does the Potency read?
**A.** inconclusive: 20 µM [inhibitor, single point]

**Q.** For `CCCNC(=O)COC(=O)/C=C/c1ccco1`, which Potency is on record?
**A.** inactive

**Q.** With `O=C(CN1C(=O)CC(c2ccco2)Sc2ccccc21)NCC1CCCO1` (stereo unspecified) as the molecule, how does the Potency read?
**A.** inconclusive: 25.1 µM [inhibitor, partial curve]

**Q.** `Cc1ccc(OCC(=O)Nc2ccc3nc(SCC(=O)N4CCCC4)sc3c2)cc1C` was tested. Which Potency did it give?
**A.** inconclusive: 0.708 µM [inhibitor, full curve]

**Q.** For `COc1cc([N+](=O)[O-])cc2cc(C(=O)NC(C)(C)C)c(=O)oc12`, which Potency is on record?
**A.** inconclusive: 11.2 µM [inhibitor, partial curve, poor fit]

**Q.** How did the Potency turn out when `COc1ccc(-c2nn(-c3ccccc3)cc2/C=C(\CC(=O)O)c2nc3ccccc3s2)cc1OC` was run?
**A.** inconclusive: 20 µM [inhibitor, partial curve]

**Q.** With `COc1ccc(C2CC(=O)N3CN(C4CCCCC4)CSC3=C2C#N)cc1` (stereo unspecified) as the molecule, how does the Potency read?
**A.** active: 17.8 µM

**Q.** Which Potency does the source give for `Cc1ccc(C)c(S(=O)(=O)N/N=C/c2ccc(N3CCOCC3)cc2)c1` here?
**A.** inconclusive: 12.6 µM [inhibitor, partial curve]

**Q.** For `CCc1ccc(CNC(=O)CSCc2cnn(-c3ccccc3)c2-n2cccc2)cc1`, which Potency is on record?
**A.** inconclusive: 12.6 µM [inhibitor, partial curve]

**Q.** For `Cc1ccc(Cn2c(=O)c3ccccc3n3c(-c4ccccc4)nnc23)cc1`, which Potency is on record?
**A.** inactive

**Q.** For `O=C(CN1CCSCC1)N1CCc2[nH]c3ccc(Br)cc3c2C1`, which Potency is on record?
**A.** inconclusive: 25.1 µM [inhibitor, partial curve, poor fit]

**Q.** With `Cn1c(=O)c(/C=C/c2ccccc2)nc2ccccc21` as the molecule, how does the Potency read?
**A.** inconclusive: 11.2 µM [inhibitor, partial curve]

**Q.** Which Potency does the source give for `COc1ccc(-n2c(=O)c3c4c(sc3n(Cc3cc(=O)n5c(C)cccc5n3)c2=O)CCC4)c(OC)c1` here?
**A.** inactive

**Q.** Which Potency does the source give for `O=C(O)c1ccc(S(=O)(=O)c2ccc3c(c2)C(=O)N(CC2CCCO2)C3=O)cc1` (stereo unspecified) here?
**A.** inactive

**Q.** With `Cc1ccc(NC(=O)c2ccco2)c(OCc2cc(=O)n3cc(C)sc3n2)c1` as the molecule, how does the Potency read?
**A.** inactive

**Q.** How did the Potency turn out when `Cc1ccc(-c2cc(C(=O)Nc3ccccn3)c3ccccc3n2)o1` was run?
**A.** inconclusive: 12.6 µM [inhibitor, partial curve]

**Q.** How did the Potency turn out when `Cc1ccc(C(=O)NC(=C(Cl)Cl)S(=O)(=O)c2ccc(Cl)cc2)cc1` was run?
**A.** inconclusive: 31.6 µM [inhibitor, single point]

**Q.** With `O=C(Cn1cc(SCc2ccccc2Cl)c2ccccc21)N1CCCCCC1` as the molecule, how does the Potency read?
**A.** inactive

**Q.** For `O=C(N/N=C/c1cccnc1)c1ccccc1OCc1ccc(Cl)cc1`, which Potency is on record?
**A.** inactive

**Q.** For `CCOC(=O)c1noc2ncn(CC(=O)O)c(=O)c12`, which Potency is on record?
**A.** inactive

**Q.** For `O=C(COc1ccc(Cl)cc1)NC1=NN(c2ccccc2)C(=O)C1`, which Potency is on record?
**A.** inconclusive: 17.8 µM [inhibitor, partial curve]

**Q.** `COc1cccc2c1CCC1CC(=O)CC[C@@]21C` (stereo partly specified) was tested. Which Potency did it give?
**A.** inconclusive: 8.91 µM [inhibitor, single point]

**Q.** Which Potency does the source give for `CCn1ccnc1CN(C)C(=O)CCc1nnc(CCC2CCCCC2)o1` here?
**A.** inactive

**Q.** How did the Potency turn out when `Cc1onc(-c2ccccc2Cl)c1C(=O)N1CCCc2ccccc21` was run?
**A.** inactive

**Q.** For `Cc1nn2c(N3CCN(CCO)CC3)c3c(nc2c1-c1ccccc1)CCCC3`, which Potency is on record?
**A.** inconclusive: 44.7 µM [inhibitor, single point]

**Q.** `Cc1cccc(-c2noc(CN(C(C)C)S(=O)(=O)c3ccc(F)cc3)n2)c1` was tested. Which Potency did it give?
**A.** inactive

**Q.** Which Potency does the source give for `NS(=O)(=O)c1cccc(NC(=O)CSc2nnc(C3CC3)n2Cc2ccccc2)c1` here?
**A.** inactive

**Q.** Which Potency does the source give for `N#CC1=C(N)C(C#N)(C#N)[C@H](c2ccoc2)[C@H]2CN(Cc3ccccc3)CC=C12` here?
**A.** inconclusive: 11.2 µM [inhibitor, partial curve]

**Q.** Which Potency does the source give for `CSc1cccc(NC(=O)CN2C(=O)c3ccccc3S2(=O)=O)c1` here?
**A.** inactive

**Q.** Which Potency does the source give for `COc1cccc(-c2nc(CS(=O)CC(=O)N3CCN(c4cccc(C(F)(F)F)c4)CC3)c(C)o2)c1` (stereo unspecified) here?
**A.** inconclusive: 12.6 µM [inhibitor, partial curve]

**Q.** `O=C(NCCNc1ccc([N+](=O)[O-])cc1C(F)(F)F)c1ccc(F)cc1` was tested. Which Potency did it give?
**A.** inconclusive: 15.8 µM [inhibitor, partial curve]
